# About 2,200 (0.71%) of roughly 310,000 compounds showed an effect of 50% or more. The effect is printed as a negative number. Some of the results follow.
# Target: human ether-à-go-go-related gene (hERG) potassium channel (human, UniProt Q12809)
# Experiment: primary screen, population patch clamp on CHO cells stably expressing hERG
# human ether-à-go-go-related gene (hERG) potassium channel, sequence (Q12809 whole entry, looked up): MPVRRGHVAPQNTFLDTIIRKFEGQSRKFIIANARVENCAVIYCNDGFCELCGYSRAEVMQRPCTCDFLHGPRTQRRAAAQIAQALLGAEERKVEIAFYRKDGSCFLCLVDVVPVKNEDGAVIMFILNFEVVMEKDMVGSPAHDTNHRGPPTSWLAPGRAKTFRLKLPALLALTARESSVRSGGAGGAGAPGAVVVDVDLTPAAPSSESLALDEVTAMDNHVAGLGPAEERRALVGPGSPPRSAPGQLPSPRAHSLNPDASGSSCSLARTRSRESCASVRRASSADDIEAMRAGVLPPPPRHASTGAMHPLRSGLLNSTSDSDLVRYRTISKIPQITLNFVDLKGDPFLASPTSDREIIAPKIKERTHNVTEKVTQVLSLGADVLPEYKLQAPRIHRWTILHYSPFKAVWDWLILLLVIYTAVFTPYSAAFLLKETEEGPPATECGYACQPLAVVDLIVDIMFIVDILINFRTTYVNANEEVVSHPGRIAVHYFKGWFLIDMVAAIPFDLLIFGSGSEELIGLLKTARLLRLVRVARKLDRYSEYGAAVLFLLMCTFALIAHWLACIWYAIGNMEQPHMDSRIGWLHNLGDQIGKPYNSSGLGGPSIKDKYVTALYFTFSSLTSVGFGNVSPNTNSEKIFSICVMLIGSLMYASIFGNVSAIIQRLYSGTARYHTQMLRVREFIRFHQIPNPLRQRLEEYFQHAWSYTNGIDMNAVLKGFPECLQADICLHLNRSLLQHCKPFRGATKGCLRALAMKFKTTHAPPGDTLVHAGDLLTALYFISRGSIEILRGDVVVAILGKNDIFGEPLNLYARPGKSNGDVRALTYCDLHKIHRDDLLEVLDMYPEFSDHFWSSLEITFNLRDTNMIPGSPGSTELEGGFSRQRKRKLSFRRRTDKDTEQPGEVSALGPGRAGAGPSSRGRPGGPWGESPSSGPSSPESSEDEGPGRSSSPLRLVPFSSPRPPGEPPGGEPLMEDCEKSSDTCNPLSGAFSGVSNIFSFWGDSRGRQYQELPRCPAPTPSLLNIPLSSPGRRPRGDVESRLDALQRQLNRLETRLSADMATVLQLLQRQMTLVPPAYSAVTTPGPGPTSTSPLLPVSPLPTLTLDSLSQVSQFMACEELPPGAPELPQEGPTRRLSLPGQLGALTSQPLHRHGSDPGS
row,SMILES,"hERG current change (%, negative = inhibition) at 1uM [%]"
1,COc1ccc(C(=O)Nc2ccc(N3CCN(C)CC3)cc2)cc1OC,7.43
2,Cc1noc(C(=O)NCC2CCCO2)c1Cl (stereo not drawn),15.9
3,COC(=O)c1[nH]nc(-c2ccccc2)c1-c1ccccc1,-0.514
4,COc1ccc(S(=O)(=O)n2ccc(C)n2)cc1C,5.41
5,COc1ccc(S(=O)(=O)NCC2CCCN(C(=O)C3CCCC3)C2)cc1 (stereo not drawn),13.6
6,COC(=O)Cn1cnc2c(nnn2-c2ccc(C)cc2)c1=O,8.54
7,COc1ccc(CN2C(=O)c3ccccc3C2C(=O)NCCc2ccccc2)c(OC)c1 (stereo not drawn),-5.73
8,Cc1cccc(N2CCN(Cc3ccc(Br)o3)CC2)c1C,10.6
9,C(=N\n1cnnc1)/c1cn(Cc2ccccc2)c2ccccc12,15.4
10,Cc1cc(C)c2nc(C(F)(F)F)nc(N3CC(C)OC(C)C3)c2c1 (stereo not drawn),13.9
11,Cc1ccc(S(=O)(=O)Nc2ccc(Cl)cn2)cc1C,12.3
12,CC(C)CN(C(=O)c1ccc2c(c1)OCO2)C1CCS(=O)(=O)C1 (stereo not drawn),-7.81
13,O=C(OCCOc1cccc(Cl)c1)c1ccc(F)c(S(=O)(=O)N2CCOCC2)c1,9.78
14,Cc1ccc(C(=O)Nc2ccncc2)c(Cl)c1,12.9
15,COc1ccc(-c2[nH]ncc2-c2csc(C)n2)c(O)c1,13.7
16,CCOC(=O)/C(=N\Nc1ccc(Cl)cc1)c1csc(Nc2ccccc2)n1,1.88
17,O=C(CN1C(=O)NC2(CCCCC2)C1=O)NCCc1c[nH]c2ccccc12,12.8
18,CCOC(=O)Nc1sc2c(c1C#N)CCC(C)C2 (stereo not drawn),9.92
19,CCCC(c1nnnn1Cc1ccc(OC)cc1)N1CCN(C(=O)c2ccco2)CC1 (stereo not drawn),-20.7
20,CCOc1ccc(C(=O)CCC(=O)Nc2ccccc2C)cc1,12.5
21,COC(=O)c1c(NC(=O)c2cccnc2)sc(C(=O)N(C)C)c1C,14.9
22,Cc1cc(C(=O)N/N=C/c2ccco2)c2ccccc2n1,6.94
23,Cc1ccc(SCCNC(=S)Nc2ccccc2)cc1,-0.346

row,SMILES,"hERG current change (%, negative = inhibition) at 1uM [%]"
1,COc1ccc(S(=O)(=O)N2CCN(CC(O)CN3CCOCC3)CC2)cc1 (stereo not drawn),10.4
2,COc1cc(C(c2c(C)[nH][nH]c2=O)c2c(C)[nH][nH]c2=O)ccc1OC(=O)c1cccc([N+](=O)[O-])c1,14.1
3,O=C(OCN1C(=O)c2ccccc2C1=O)c1cccnc1SC(F)F,1.31
4,CN1CCN(c2nc(-c3ccco3)cc(C(F)(F)F)n2)CC1,-12.4
5,CC(NC(=O)CNC(=S)N(Cc1ccccc1)Cc1cccnc1)c1ccccc1 (stereo not drawn),9.68
6,COc1cccc(C(=O)Nc2cccc(C(=O)NC3=NN(c4c(Cl)cc(Cl)cc4Cl)C(=O)C3)c2)c1,7.9
7,COc1ccc(OC)c(NC(=O)c2ccccc2OC(C)=O)c1,18.4
8,COc1ccccc1-c1ccc(SCc2ccccc2)nn1,4.58
9,Cc1ccc(O)c(NC(=O)c2cc(-c3ccco3)on2)c1,9.76
10,COc1ccc(NC(=O)/C(C#N)=C/c2ccc(-c3ccccc3C(=O)O)o2)cc1,10.1
11,O=C(Oc1ccc(-c2nnco2)cc1)c1ccco1,14.3
12,C=CCn1c(SCC(=O)Nc2ccc3c(c2)CCC3)nnc1-c1cccs1,-83.5
13,Cc1ccc(NC(=O)C2CCCN2C(=O)OCc2ccccc2)cc1F (stereo not drawn),14.9
14,OC(COC(c1ccccc1)c1ccccc1)CN1CCN(c2cccc(Cl)c2)CC1 (stereo not drawn),12.2
15,C=CCn1c(SCC(=O)Nc2ncc(Cc3cc(C(F)(F)F)ccc3Cl)s2)nnc1-c1ccncc1,1.81
16,COc1cccc2cc(C(=O)N3CCN(C(=O)c4ccccc4)CC3)c(=O)oc12,7.85
17,Cc1nc2nc(-c3cccs3)[nH]c2cc1Br,6.54
18,CC1(C)CC(=O)CC(C)(C)N1OC(=O)c1ccco1,6.77
19,CCOc1ccc(-c2c(C#N)c(N)nc3sc(C(=O)c4ccccc4)c(N)c23)cc1,6.4
20,Cc1cc(C(=O)NNS(=O)(=O)c2ccc(C(C)(C)C)cc2)nn1C(C)(C)C,4.28
21,CCc1cc(C(=O)OC)c(NC(=O)CC2Sc3ccc(C(F)(F)F)cc3NC2=O)s1 (stereo not drawn),12
22,COC(=O)c1cn(NC(=O)Cc2ccc(OC)c(OC)c2)c(=O)c2ccccc12,1.46
23,COc1cc([N+](=O)[O-])c2nccnc2c1,19.3

row,SMILES,"hERG current change (%, negative = inhibition) at 1uM [%]"
1,O=C(Nc1cccc(-c2cn3cccnc3n2)c1)c1ccc2c(c1)OCO2,4.37
2,CCc1nnc(NC(=O)c2nc3nc(C)cc(C)n3n2)s1,7.08
3,Cc1ccc2nc(-c3cccnc3)c(NC3CCCCC3)n2c1,5.38
4,CC(=O)C1=C(C)N(Cc2ccco2)C(=O)C1(NC(=O)C1CCCCC1)C(F)(F)F (stereo not drawn),8.33
5,COc1ccc(-c2nc(CS(=O)(=O)CC(=O)NCCCN3CCN(C)CC3)c(C)o2)cc1,-4.38
6,CCN(CC(=O)Nc1ccc(NC(C)=O)cc1)C(=O)c1ccc(NC2CC2)c([N+](=O)[O-])c1,22.3
7,O=C1CCCc2nc(N3CCCCC3)sc21,10.1
8,CCOC(=O)Cc1csc(NC(=O)c2ccc(S(=O)(=O)N3CCCCC3)cc2)n1,-13.4
9,Cn1cnc(S(=O)(=O)NCc2ccc(Br)cc2)c1,0.577
10,Cc1c(C(=O)NCc2ccc3c(c2)OCO3)oc2ccc(S(=O)(=O)N3CCC(C)CC3)cc12,0.865
11,Cc1cccc2nc(CSc3nnnn3-c3ccccc3)cn12,0.496
12,O=C(Cc1ccc(Cl)cc1)NCCc1ccc(F)cc1,10.3
13,O=C(Nc1nnc(-c2cccs2)o1)c1cccc(F)c1,11.8
14,NS(=O)(=O)c1ccc(CNC(=O)c2ccc(Cl)c([N+](=O)[O-])c2)cc1,10.3
15,Oc1ccc(-c2nccc(-c3ccc(F)cc3)n2)cc1,18.5
16,Cc1c2cnn(CC(=O)Nc3cccc(C(F)(F)F)c3)c(=O)c2c(C)n1Cc1ccccc1F,8.62
17,CCn1c(SCC(=O)Nc2ccccc2)nnc1C1CCCCC1,23.6
18,Cc1cc(C)n2nc(SCc3nnc(SCc4ccccc4C)s3)nc2n1,-2.18
19,O=C(O)CC(NC(=O)c1ccccc1NC(=O)c1ccccc1)C(=O)O (stereo not drawn),3.71
20,CN(C1=C(N2CCCCC2)C(=O)c2ccccc2C1=O)c1ccccc1,11
21,CC(C)CCN1CCN(Cc2cccn2-c2cccnc2)CC1CCO (stereo not drawn),-9.84
22,CCCN1CCN(CCCNC(=O)c2ccc3nc(N4CCC(C)CC4)sc3c2)CC1,-3.22
23,CCCCCCCN1CCN=C1Nc1ccccc1,-12.2

row,SMILES,"hERG current change (%, negative = inhibition) at 1uM [%]"
1,COC(=O)c1c(NC(=O)C(=O)NCCCN2CCOCC2)sc2c1CCCC2,8.68
2,Clc1ccc(Oc2cnc3ccccc3n2)cc1,-3.77
3,CCc1ccccc1N(C)C(=O)CCc1nc(-c2ccc(C)cc2)no1,10.9
4,CCOc1ccc(-c2nnn(CC(=O)c3ccc4c(c3)OCCO4)n2)cc1OCC,8.01
5,O=C(CSc1n[nH]c(-c2ccc(S(=O)(=O)N3CCCCC3)cc2)n1)Nc1nccs1,8.22
6,Clc1ccc2[nH]c3c(NCCCN4CCOCC4)ncnc3c2c1,-32.7
7,Cc1noc(NC(=O)c2ccccc2)c1C#N,7.08
8,O=C(Cc1n[nH]c(=O)c2ccccc12)OCC(=O)c1ccccc1,14
9,CCC(OC(=O)c1nsc(Cl)c1Cl)C(=O)NCCc1ccccc1 (stereo not drawn),11.4
10,CC(C(=O)N1CCOCC1)N1C(=O)c2cccc3cccc(c23)C1=O (stereo not drawn),13.6
11,C#Cc1ccc([C@H]2C=C(C(=O)NCc3ccccc3)O[C@@H](OCc3ccc(CO)cc3)C2)cc1,15.4
12,CCOC(=O)c1ccc(NC(=O)COc2ccc(-n3cnnn3)cc2)cc1,-6.84
13,Cc1ccccc1NC(=O)c1ccc(CN2CC(=O)N3CCCCC3C2=O)cc1 (stereo not drawn),13
14,C(=C\c1ccncc1)/c1ccccc1,3.35
15,Cc1cc(C(C)(C)C)cc(C)c1COC(=O)c1cccnc1,11
16,CCCN(CC(=O)Nc1ccccc1C)C(=O)C1CC(=O)N(c2ccccc2C(C)CC)C1 (stereo not drawn),11.8
17,CCC1(CC)Cc2ccccc2C2=C(C(=O)N3CCCCC3)C(=O)C(=O)N21,5.74
18,Cc1ccc(-c2csc3nc4c5ccccc5c(NCCCN5CCOCC5)nn4c(=O)c23)cc1,1.52
19,CSCc1c(C(=O)Nc2ccc(N3CCOCC3)cc2)oc2ccccc12,3.32
20,Cc1cc(=O)oc(C)c1C(=O)O,6.87
21,COc1ccc(-n2c(=O)c(CCC(=O)N3CCN(c4ccccc4O)CC3)nc3ccccc32)cc1,-7.47
